Test results from paper PMC11835754, “Phospho-tau serine-262 and serine-356 as biomarkers of pre-tangle soluble tau assemblies in Alzheimer’s disease” (Nature Medicine, 2025).

Molecular target: the molecule itself
Assay: SPR; Biacore T100; antibody CT19.1 (epitope aa 331-361) amine-coupled to a CM5 chip to 4,000 RU; truncated tau peptides injected at 20 ul/min in PBS at 25 C; the authors read the signal as the mass of aggregates bound

Row | Protein | binding result
1 | recombinant STA core peptide (tau […]) (domain or fragment, tau, […] of tau441 ([…]); amplified from the tau441 cDNA Origene RC213312; Species from the printed UniProt entry; also called soluble core fragment; source: E. coli BL21 (DE3), purified (Ni-NTA, SUMO protease cleavage, size exclusion where necessary); not shown: His6-SUMO, N-terminal, cleaved) not shown | binds
2 | recombinant fibril core peptide (tau […]) (domain or fragment, tau, […] of tau441 ([…]); amplified from the tau441 cDNA Origene RC213312; Species from the printed UniProt entry; also called insoluble core fragment; source: E. coli BL21 (DE3), purified (Ni-NTA, SUMO protease cleavage, size exclusion where necessary); not shown: His6-SUMO, N-terminal, cleaved) not shown | binds
